About 230 (0.21%) of roughly 110,000 compounds showed an effect of 50% or more. The list shows a part of the results.
Biological target: DPAP1 (Plasmodium falciparum, UniProt Q8IIJ9)
Experiment: primary screen, percent inhibition; read by cleavage of a fluorogenic dipeptide substrate; higher = more effect of the substance
Set-up: species or system P. falciparum D10 trophozoite lysates; single well
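Further: 30 min substrate incubation versus DMSO and 10 µM JCP410 controls.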

DPAP1, sequence (Q8IIJ9 whole entry, looked up): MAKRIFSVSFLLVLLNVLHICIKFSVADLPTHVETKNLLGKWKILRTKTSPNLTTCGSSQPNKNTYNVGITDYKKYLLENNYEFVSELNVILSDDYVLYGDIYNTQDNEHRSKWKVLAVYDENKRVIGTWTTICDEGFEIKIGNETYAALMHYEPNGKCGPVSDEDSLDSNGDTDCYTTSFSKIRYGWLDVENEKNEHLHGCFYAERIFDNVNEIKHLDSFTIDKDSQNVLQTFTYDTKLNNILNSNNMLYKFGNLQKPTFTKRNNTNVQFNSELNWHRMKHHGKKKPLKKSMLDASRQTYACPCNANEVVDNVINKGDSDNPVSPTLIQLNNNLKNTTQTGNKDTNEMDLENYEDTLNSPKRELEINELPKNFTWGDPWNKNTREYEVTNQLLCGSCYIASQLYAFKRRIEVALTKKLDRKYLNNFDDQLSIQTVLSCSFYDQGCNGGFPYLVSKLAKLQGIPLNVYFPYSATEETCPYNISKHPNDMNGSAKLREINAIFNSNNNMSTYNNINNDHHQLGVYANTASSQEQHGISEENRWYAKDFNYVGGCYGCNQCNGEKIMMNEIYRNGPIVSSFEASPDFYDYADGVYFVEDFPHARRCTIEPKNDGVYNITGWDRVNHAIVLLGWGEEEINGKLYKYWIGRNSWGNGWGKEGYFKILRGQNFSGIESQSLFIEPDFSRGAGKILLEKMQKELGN

Going from `FC(F)(F)c1ccccc1CNc1ccc2[nH]ncc2c1` to `O=C(NCc1ccccc1Cl)c1ccc(Cn2cc(Cl)cn2)cc1`, the “% Inhibition @ 10 uM” value rises from 0.217% to 2.08%.

Going from `CCOC(=O)C1=C(C)N=c2s/c(=C/c3cc(C)n(C)c3C)c(=O)n2C1c1cc(OC)ccc1OC` (stereo not drawn) to `COc1ccc(NC(=O)c2ccc(Cn3nc(C)cc3C)o2)c(OC)c1`, the “% Inhibition @ 10 uM” value falls from -1.25% to -9.4%.

Compared with `COc1ccc(CCNC(=O)C2CC2)cc1OC`, `COc1ccc(CNC(=O)c2cc(C3CC3)on2)cc1` is lower in “% Inhibition @ 10 uM” value: 8.01% for the first, -1.21% for the second.

Going from `C=C(C)Cn1c(=S)[nH]c2sc3c(c2c1=O)CCCC3` to `O=C(CNCc1cccnc1)Nc1sc2c(c1C(=O)Nc1ccc(Br)cc1)CCCC2`, the “% Inhibition @ 10 uM” value falls from 57.3% to -6.07%.

First: CC(=O)N1CCC2(CC1)OC(=O)C(C)=C2C(=O)NCc1cccs1
Second: CC1=C(C(=O)NCCCN2CCc3ccccc3C2)C2(CCCCC2)OC1=O
The “% Inhibition @ 10 uM” value of the first is higher: -2.13% for the first, -5.58% for the second.

Compared with `COc1ccc(C)cc1NC(=O)CN(c1cccc(C(F)(F)F)c1)S(C)(=O)=O`, `Cc1ccc(C)c(NC(=O)C2CC(=O)N(c3ccc(C(C)C)cc3)C2)c1` (stereo not drawn) is higher in “% Inhibition @ 10 uM” value: -7.09% for the first, -1.95% for the second.

First: COc1ccc(-c2noc(-c3ccco3)n2)cc1
Second: COc1ccc(-c2nsc(SCC(=O)Nc3nnc(C)s3)n2)cc1
The “% Inhibition @ 10 uM” value of the first is lower: -2.99% for the first, -0.659% for the second.

First: CC1=C(c2ccccc2)C(c2ccccc2)CC1=O (stereo not drawn)
Second: c1ccc(-c2nnc3sc(-c4cc5ccccc5o4)nn23)cc1
The “% Inhibition @ 10 uM” value of the first is lower: -2.8% for the first, -1.69% for the second.

Going from `CCOC(=O)C1=C(C)N=C(C)/C(=C(/O)OCC)C1/C=C/c1ccccc1` (stereo not drawn) to `CCOC(=O)c1sc(NC(=O)C2CC2c2ccccc2)c(C(=O)OCC)c1C` (stereo not drawn), the “% Inhibition @ 10 uM” value rises from -4.32% to -1.1%.

First: Cc1cc(O)nc2c3ccccc3nn12
Second: Cc1nc2ccccc2c2oc(C(=O)N3CC(C)CC(C)C3)cc12 (stereo not drawn)
The “% Inhibition @ 10 uM” value of the first is lower: -5.37% for the first, 4.74% for the second.

First: O=C(CCc1ccccc1)C1(O)CCCCC1
Second: O=C(NCCCc1ccccc1)c1c(O)nc2c(c1O)CCCC2
The “% Inhibition @ 10 uM” value of the first is higher: 1.42% for the first, -3.93% for the second.

First: Cc1cccn2c(=O)c3cc(C(=O)NCCN4CCOCC4)c(=N)n(CCOCCO)c3nc12
Second: O=C1c2ccccc2C(=O)N1CCN1CCOCC1
The “% Inhibition @ 10 uM” value of the first is higher: -1.47% for the first, -3.06% for the second.

Compared with `COc1ccc(C2C(=O)N(C3CCCCC3)CC(=O)N2C2CCCc3ccccc32)cc1` (stereo not drawn), `Cc1ccc(C2C3=C(Nc4ncnn42)c2ccccc2CCC3)cc1` (stereo not drawn) is lower in “% Inhibition @ 10 uM” value: -0.519% for the first, -3.4% for the second.

First: CCOC(=O)c1cnc(SCC(=O)N2CCCC2)nc1N
Second: CCOC(=O)c1cc(C#N)c(SC)nc1O
The “% Inhibition @ 10 uM” value of the first is higher: 0.558% for the first, -1.32% for the second.

Going from `COc1ccc(C2C(C#N)=C(N)Oc3[nH]nc(-c4ccc(Cl)cc4)c32)cc1O` (stereo not drawn) to `Cc1ccc(-c2csc(/C(C#N)=C/c3ccc(Cl)cc3Cl)n2)cc1`, the “% Inhibition @ 10 uM” value falls from -2.78% to -4.08%.

Going from `COc1nc(N)c(C#N)c(-c2cccnc2)c1C#N` to `O=C(Cc1ccccc1)n1nc(-c2cccnc2)nc1NCc1cccs1`, the “% Inhibition @ 10 uM” value rises from -4.61% to 5.35%.

Compared with `O=C(c1ccc2snnc2c1)N1CCCCC1`, `O=C(c1ccc2c(c1)sc1nc(-c3ccccc3)cn12)N1CCCCC1` is higher in “% Inhibition @ 10 uM” value: -3.52% for the first, 35.6% for the second.

First: CC(C)C(=O)N1CCC(Cc2ccccc2)CC1
Second: CC(C)c1ccc(/C=C/C(=O)NCCc2ccccc2)cc1
The “% Inhibition @ 10 uM” value of the first is lower: -8.61% for the first, 2.13% for the second.

Compared with `CCc1nn(CC(=O)NCCc2cc(OC)ccc2OC)c(=O)c2cc3sccc3n12`, `COc1ccc(NS(=O)(=O)c2ccc(NC(=O)c3ccc(OC)c(Br)c3)cc2)cc1` is higher in “% Inhibition @ 10 uM” value: -3.35% for the first, -0.173% for the second.

Compared with `CCN(CC)C(=O)c1ccc(CS(=O)c2ccc(Cl)cc2)o1` (stereo not drawn), `CN(C)CCN(Cc1ccccc1)Cc1ccc(Cl)cc1` is lower in “% Inhibition @ 10 uM” value: 0.458% for the first, -6% for the second.

First: Cc1ccc(CN2C(=O)N/C(=C/c3ccc(OCC(=O)Nc4ccccc4)cc3)C2=O)cc1
Second: COc1ccc(C(CC(=O)NCCc2ccccc2)N2Cc3ccccc3C2=O)cc1 (stereo not drawn)
The “% Inhibition @ 10 uM” value of the first is higher: 2.49% for the first, -5.16% for the second.

Compared with `CC(C)C[C@H](NC(=O)c1cccc(-c2cccc(S(N)(=O)=O)c2)c1)C(=O)NCC#N`, `CC(Oc1cccc(Cl)c1)C(=O)N(Cc1nc(-c2ccccc2)no1)C(C)C` (stereo not drawn) is higher in “% Inhibition @ 10 uM” value: -5.2% for the first, -3.68% for the second.

First: O=C1c2ccccc2-c2nnc(-c3cccs3)cc21
Second: COc1cccc(/C=C2\SC(c3ccccc3)=NC2=O)c1O
The “% Inhibition @ 10 uM” value of the first is lower: -2.47% for the first, 34% for the second.

First: CCOC(=O)N1CCN(S(=O)(=O)c2ccc3ccccc3c2)CC1
Second: CCOC(=O)N1CCN(C(C)=C2C(=O)c3ccccc3C2=O)CC1
The “% Inhibition @ 10 uM” value of the first is lower: -12.5% for the first, 2.44% for the second.

First: CC(C)c1nnc(NC(=O)CCCCCN2C(=O)C3C4C=CC(C4)C3C2=O)s1 (stereo not drawn)
Second: CC(=O)Nc1ccc(S(=O)(=O)NCCCCCC(=O)O)cc1
The “% Inhibition @ 10 uM” value of the first is lower: 2.46% for the first, 2.59% for the second.

Going from `CCOCCCN(Cc1ccco1)C(=O)c1noc2c1COc1ccc(C)cc1-2` to `CCOCCCNC(=O)C1c2ccccc2Oc2ccccc21`, the “% Inhibition @ 10 uM” value rises from -4.68% to 1.91%.

First: Clc1ccc(C2CC(c3cccs3)n3ncnc3N2)cc1Cl (stereo not drawn)
Second: O=C(Cn1cc(C(=O)c2cccs2)c2ccccc21)NC1CCCC1
The “% Inhibition @ 10 uM” value of the first is lower: -12.2% for the first, 4.84% for the second.

Going from `c1ccc2c(c1)c(N1CCCC1)nn1cnnc21` to `c1ccc(-c2ncnc3nc4n(c23)CCC4)cc1`, the “% Inhibition @ 10 uM” value falls from 4.86% to 4.5%.

Going from `Cc1cc(-c2ccc(F)cc2)nc2cc(C(=O)Nc3cc(Cl)ccc3O)nn12` to `Cc1nc(N2C(=O)C(O)=C(C(=O)c3ccccc3)C2c2ccc(Cl)cc2)sc1C` (stereo not drawn), the “% Inhibition @ 10 uM” value rises from -10.7% to -6.4%.

Compared with `CCOc1c(CNCCNC(=O)c2nonc2N)cccc1OC`, `Nc1c(C(=O)NCc2ccc3c(c2)OCO3)nnn1Cc1cccc(F)c1` is higher in “% Inhibition @ 10 uM” value: -3.49% for the first, 1.26% for the second.

Going from `Cc1cccc(C)c1OCC(O)CN1CCN(Cc2ccc3c(c2)OCO3)CC1` (stereo not drawn) to `O=C1ON=C(c2ccccc2)/C1=C\c1ccc2c(c1)OCO2`, the “% Inhibition @ 10 uM” value rises from -2.86% to -2.14%.

Compared with `COc1cc(/C=C2\SC(N)=NC2=O)cc(Cl)c1OS(=O)(=O)c1ccccc1`, `Cc1cc(/C=C2/NC(=O)N(c3cccc(Cl)c3)C2=O)c(C)n1-c1ccc(S(N)(=O)=O)cc1` is higher in “% Inhibition @ 10 uM” value: -4.7% for the first, -0.67% for the second.

Going from `CCCCN(C)C(=O)Cn1ncc2c(C)n(Cc3ccccc3Cl)c(C)c2c1=O` to `Cc1nn(C(C)C(=O)NCCCN2CCCC2=O)c(=O)c2nn(-c3ccccc3)c(C)c12` (stereo not drawn), the “% Inhibition @ 10 uM” value falls from -0.447% to -2.31%.

Going from `O=C(O)C1CC=CCC1C(=O)Nc1ccc2c(c1)OCO2` (stereo not drawn) to `Cc1nc2cc(NC(=O)N(C)c3ccc4ccccc4c3)ccc2o1`, the “% Inhibition @ 10 uM” value falls from 7.12% to -2.54%.

Going from `CN(CCCNC(=O)c1csc2c1CCCC2)Cc1ccccc1` to `CC(=O)c1[nH]c(C)c(C(=O)NCCCc2ccccc2)c1C`, the “% Inhibition @ 10 uM” value falls from -3.21% to -4.05%.

Compared with `C=C(C)Cn1c(CN(C)Cc2ccccc2)nc2c1c(=O)n(C)c(=O)n2C`, `CCC(C)c1ccccc1OCC(O)CN1C(=O)NC(C)(C)C1=O` (stereo not drawn) is higher in “% Inhibition @ 10 uM” value: -4.78% for the first, 0.275% for the second.

First: COc1ccc(C(NC(=O)CCc2ccccc2)c2ccc3cccnc3c2O)cc1 (stereo not drawn)
Second: O=S(=O)(NCCc1nnc2ccc(SCc3cccc4ccccc34)nn12)c1ccccc1
The “% Inhibition @ 10 uM” value of the first is lower: 0.279% for the first, 0.581% for the second.

First: CC1=C(C(=O)Nc2ccccc2C)C(c2cccc(Br)c2)C2=C(O)CCCC2=N1 (stereo not drawn)
Second: COC(=O)C1=C(C)NC(=O)NC1c1cccc(Br)c1 (stereo not drawn)
The “% Inhibition @ 10 uM” value of the first is higher: 5.49% for the first, 2.45% for the second.

Compared with `O=C1CC(NCC23CC4CC(CC(C4)C2)C3)C(=O)N1c1ccc(Br)cc1` (stereo not drawn), `O=C1C2C3CCC(C3)C2C(=O)N1c1ccc(Cl)cc1Cl` (stereo not drawn) is lower in “% Inhibition @ 10 uM” value: 6.23% for the first, -1.12% for the second.

Going from `Cc1oc2ccc(O)c(CN3CCCCC3C)c2c1C(=O)NC1CCCC1` (stereo not drawn) to `CC(CCc1ccc(O)cc1)N1CCCCCCC1` (stereo not drawn), the “% Inhibition @ 10 uM” value falls from -2.99% to -5.11%.

Compared with `O=C(NCCOCCOCCNC(=O)c1cccnc1)c1cccnc1`, `O=C(O)CNC(=O)/C(=C\c1cccs1)NC(=O)c1ccccc1` is higher in “% Inhibition @ 10 uM” value: -1.33% for the first, 4.65% for the second.

Going from `Cc1cc(NC(=O)Cn2nc(C(F)(F)F)cc2C2CC2)no1` to `CCn1cc(C2=NOC(C(=O)Nc3cccnc3)C2)c(C)n1` (stereo not drawn), the “% Inhibition @ 10 uM” value rises from -3.45% to 3.45%.

Going from `O=[N+]([O-])c1c(NCc2ccccc2)cc(Cl)c2nonc12` to `CC(C)CNc1cnnc2c(Cl)cccc12`, the “% Inhibition @ 10 uM” value falls from 16.3% to -9.84%.

First: CNC(=O)CCn1nc(-c2ccc(C)cc2)c2ccccc2c1=O
Second: O=c1/c(=C/c2c(O)ccc3ccccc23)sc2n1CCCN=2
The “% Inhibition @ 10 uM” value of the first is lower: -8.79% for the first, 35.2% for the second.

Going from `CC[C@H](C)[C@H](NC(=O)CCc1ccccc1)C(=O)N[C@@H](CCc1ccccc1)C(=O)CO` to `CCCc1ccc(C(C)NC(=O)c2ccc(C)s2)cc1` (stereo not drawn), the “% Inhibition @ 10 uM” value falls from 3.66% to 1.64%.

Compared with `CC1(C)CC(=O)C2=C(C1)OC(N)=C(C#N)C2c1coc2ccccc2c1=O` (stereo not drawn), `Cc1ccc(-c2ccc(C=C3C(=O)N(C)C(=O)N(C)C3=O)o2)c(Br)c1` is higher in “% Inhibition @ 10 uM” value: -3.77% for the first, 5.23% for the second.

Compared with `CCC1(CC)C(=O)NC(=S)N=C1N`, `COc1ccc(C(=O)CCC(=O)O)c(C)c1` is lower in “% Inhibition @ 10 uM” value: -0.0372% for the first, -1.33% for the second.

Going from `CSc1nc(C)cc(Oc2ccc(OCCOc3ccccc3)nn2)n1` to `CCCCNc1ncnc2c1cnn2-c1ccc(C)cc1C`, the “% Inhibition @ 10 uM” value rises from -3.96% to 0.759%.

First: COCCNC(=O)c1cc(S(=O)(=O)N2CCOCC2)cn1C
Second: CCCCNC(=O)c1cc2cc3ccc(C)cc3nc2o1
The “% Inhibition @ 10 uM” value of the first is higher: 0.229% for the first, -1.54% for the second.

Going from `C=CCCC1(C)N2CC3(C)CN1CC(C)(C2)C3=O` (stereo not drawn) to `CCCCN(C)c1sc(S(C)(=O)=O)nc1S(=O)(=O)c1ccc(C)cc1`, the “% Inhibition @ 10 uM” value falls from -4% to -7.8%.

First: O=c1c2nnn(-c3ccc(F)cc3)c2ncn1Cc1ccc(F)cc1
Second: COC(=O)c1c(NC(=O)c2ccc(C)cc2)sc(C)c1C
The “% Inhibition @ 10 uM” value of the first is higher: -0.431% for the first, -1.1% for the second.

From PMC6919601, “Identification of Plasmodium dipeptidyl aminopeptidase allosteric inhibitors by high throughput screening” (PLoS ONE, 2019)
